Source: the supplement of paper PMC3334620
The full ranking holds about 33,000 sequences; the median of “E-score (-0.5 to 0.5)” is about -0.04, and the highest 2% start at about 0.36. Some of the results follow.

Each sequence was assayed against T1, Hmlalpha2 (UniProt P0CY09) (assay: PBM E-score (8-mer binding enrichment) (E-score (-0.5 to 0.5)); higher = stronger / more preferred TF binding; most listed sequences are background and not binding sites). Conditions: protein concentration: 200 nM; construct: GST-full length.
T1 sequence: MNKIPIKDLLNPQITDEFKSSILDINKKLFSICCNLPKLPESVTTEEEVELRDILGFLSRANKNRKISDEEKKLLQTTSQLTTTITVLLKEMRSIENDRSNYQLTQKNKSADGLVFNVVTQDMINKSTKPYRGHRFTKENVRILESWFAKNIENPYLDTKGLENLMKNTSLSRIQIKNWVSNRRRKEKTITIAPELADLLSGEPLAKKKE
How it was run: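 Universal all-10-mer Agilent arrays, double-stranded by primer extension on fresh or once-stripped slides, were probed with about 100-200 nM GST-tagged yeast transcription factors made by PURExpress. Fluorescent anti-GST detected bound protein, and masliner normalised the scans. E-scores from the Universal PBM Analysis Suite were given to each ungapped eight-base word pooled with its reverse complement.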
For ATACCCTC, the “PBM E-score” value was -0.0624. In the case of CCGCATTA, the “PBM E-score” value is reported as -0.0889. In the case of TCCACTCA, the “PBM E-score” value is reported as -0.171. For CTTTGTGC, the “PBM E-score” value was 0.159. With AGTTATGA the “PBM E-score” value was -0.0139. In the case of ATCGAGTA, the “PBM E-score” value is reported as 0.145. With GTTGAGGA the “PBM E-score” value was 0.0618. With CGGTCGAC the “PBM E-score” value was -0.137. For GTGTGCGA, the “PBM E-score” value was -0.0166. For AAAATAAA, the “PBM E-score” value was 0.0428. With CTACTTTC the “PBM E-score” value was 0.0711. With ATGTTCTC the “PBM E-score” value was 0.151. With ACGGTTCT the “PBM E-score” value was 0.144. In the case of ATGTCAGC, the “PBM E-score” value is reported as 0.155. AGCCGGGA was tested, and the “PBM E-score” value was -0.236. In the case of AACGGACG, the “PBM E-score” value is reported as -0.152. With CGCGGCGA the “PBM E-score” value was -0.0361. AGAGTGAT was tested, and the “PBM E-score” value was -0.0285. For CTTTAACA, the “PBM E-score” value was 0.363. With GTTAATTA the “PBM E-score” value was 0.359. In the case of CCAATAGG, the “PBM E-score” value is reported as -0.0903. With ATGGTCTA the “PBM E-score” value was -0.0996. For CTATTAGA, the “PBM E-score” value was -0.0387. GAAACGTC was tested, and the “PBM E-score” value was -0.172. In the case of TCTGAACA, the “PBM E-score” value is reported as 0.121. For AAATATCA, the “PBM E-score” value was 0.0754. For CCGGCCCA, the “PBM E-score” value was -0.343. For CTACGAAC, the “PBM E-score” value was 0.0761. For AAGTTACC, the “PBM E-score” value was 0.108. For GTGCCAAA, the “PBM E-score” value was -0.084. In the case of CCCGATAC, the “PBM E-score” value is reported as -0.0785. For ATACAGAT, the “PBM E-score” value was 0.0712. In the case of ACTAGTCA, the “PBM E-score” value is reported as -0.072. In the case of CTCGCATA, the “PBM E-score” value is reported as 0.0176. AAGGGTTG was tested, and the “PBM E-score” value was 0.0478. In the case of AAACTGTC, the “PBM E-score” value is reported as -0.09. With CGTACGAA the “PBM E-score” value was 0.111. For ATCCCCTC, the “PBM E-score” value was -0.115. With AACTGCCT the “PBM E-score” value was -0.0242. With CTTGTTAA the “PBM E-score” value was 0.414. CCTGCTTA was tested, and the “PBM E-score” value was 0.0578. For GAAGAAGA, the “PBM E-score” value was 0.0898. In the case of GAGATGTA, the “PBM E-score” value is reported as 0.307. CTGCTGTA was tested, and the “PBM E-score” value was -0.00269. With AAACTGCT the “PBM E-score” value was -0.184. In the case of CGGGGTGC, the “PBM E-score” value is reported as -0.272. For CTACGGTA, the “PBM E-score” value was -0.079. AAGCTCCG was tested, and the “PBM E-score” value was -0.13. With AGCGAAGA the “PBM E-score” value was -0.249. For CCCGTTAC, the “PBM E-score” value was -0.0221. With TCGTCAAA the “PBM E-score” value was 0.0285. AAACACAG was tested, and the “PBM E-score” value was 0.318. For AAACTGAC, the “PBM E-score” value was -0.0645. In the case of GATTTTCC, the “PBM E-score” value is reported as -0.115. ATGGCGAC was tested, and the “PBM E-score” value was -0.141. With GTACTGTA the “PBM E-score” value was 0.0819. In the case of TCGGTCCA, the “PBM E-score” value is reported as -0.138. With ACTAATAG the “PBM E-score” value was 0.0561. ACGAACTA was tested, and the “PBM E-score” value was 0.107. With CTCTTCAA the “PBM E-score” value was -0.15. In the case of AACCCACC, the “PBM E-score” value is reported as -0.119. CACTCAGG was tested, and the “PBM E-score” value was 0.0519. For AACATAAG, the “PBM E-score” value was 0.391. AGCAGCTA was tested, and the “PBM E-score” value was 0.0354. For GACACCGA, the “PBM E-score” value was -0.0549. For CCAATCGA, the “PBM E-score” value was -0.143. With GATACTTA the “PBM E-score” value was -0.00631. ATCTACTA was tested, and the “PBM E-score” value was 0.193. AGTCTCAG was tested, and the “PBM E-score” value was -0.152. For ATGTTAAC, the “PBM E-score” value was 0.448. AAGCCATG was tested, and the “PBM E-score” value was 0.09. With ACTGTTTA the “PBM E-score” value was 0.227. ATCTCGCG was tested, and the “PBM E-score” value was 0.0474. With GAGCACAC the “PBM E-score” value was -0.11. In the case of GTTGCATA, the “PBM E-score” value is reported as 0.0217. For CTTCCAAG, the “PBM E-score” value was -0.152. In the case of CGAATCTA, the “PBM E-score” value is reported as 0.066. In the case of GATCCCCA, the “PBM E-score” value is reported as -0.19. For CCCTGTTC, the “PBM E-score” value was -0.147. TGGCAGAA was tested, and the “PBM E-score” value was -0.0306. For CAACTGGG, the “PBM E-score” value was -0.285. With CACGCTAA the “PBM E-score” value was 0.0185. In the case of CGCCCGCA, the “PBM E-score” value is reported as -0.195. In the case of GGAAGTCA, the “PBM E-score” value is reported as -0.328. In the case of AGCATGCC, the “PBM E-score” value is reported as -0.116. In the case of AGTGCCTG, the “PBM E-score” value is reported as -0.287. AAACGAGA was tested, and the “PBM E-score” value was 0.00331. GGGGTCAA was tested, and the “PBM E-score” value was -0.0247. AATGCTTA was tested, and the “PBM E-score” value was 0.0111. ACCCATAA was tested, and the “PBM E-score” value was -0.141. In the case of AGGCATGG, the “PBM E-score” value is reported as -0.093. GCTGCCCC was tested, and the “PBM E-score” value was -0.237. In the case of CAGTTAAC, the “PBM E-score” value is reported as 0.174. With GCCCCCTA the “PBM E-score” value was -0.299. AGATCGAG was tested, and the “PBM E-score” value was -0.0726. In the case of ATTTTCCG, the “PBM E-score” value is reported as -0.0414. CGTAAATA was tested, and the “PBM E-score” value was 0.352. For AATCTTGA, the “PBM E-score” value was 0.024. ATTCGTTA was tested, and the “PBM E-score” value was 0.0794. With AATGCATG the “PBM E-score” value was 0.208. In the case of CGGACTGC, the “PBM E-score” value is reported as 0.0298. For ATTGAGCG, the “PBM E-score” value was -0.0413. In the case of GGTTTCAA, the “PBM E-score” value is reported as -0.0868. In the case of GCCCGGTA, the “PBM E-score” value is reported as -0.191. For GTCGATCA, the “PBM E-score” value was 0.111. With ACTTTCTC the “PBM E-score” value was -0.00994. AATAGAAC was tested, and the “PBM E-score” value was 0.0852. In the case of CCGCGCCA, the “PBM E-score” value is reported as -0.237. For CAGTTGAC, the “PBM E-score” value was 0.00858. In the case of GCGTTGAA, the “PBM E-score” value is reported as 0.279. In the case of AGCGCCCG, the “PBM E-score” value is reported as -0.132. ACACCGTC was tested, and the “PBM E-score” value was -0.0839. For CTTGGGAA, the “PBM E-score” value was -0.0083. For CACGGCCC, the “PBM E-score” value was -0.0363. With CTAGTAGA the “PBM E-score” value was 0.0904. GTCAGGAC was tested, and the “PBM E-score” value was -0.232. With AACTAGAA the “PBM E-score” value was 0.134. For CCTAACCC, the “PBM E-score” value was -0.292. ACGATGCT was tested, and the “PBM E-score” value was -0.101. ATTTTCGA was tested, and the “PBM E-score” value was 0.136. GATGTCCC was tested, and the “PBM E-score” value was -0.368. For GTGGTCTA, the “PBM E-score” value was -0.296. With GCCTTAGC the “PBM E-score” value was -0.0811. AAACTCCC was tested, and the “PBM E-score” value was -0.157. AAGATTAG was tested, and the “PBM E-score” value was 0.0689. For GCAGGCCC, the “PBM E-score” value was -0.215. With CTTCAACC the “PBM E-score” value was 0.0272. CCCATTCC was tested, and the “PBM E-score” value was -0.361. In the case of ATATGGAC, the “PBM E-score” value is reported as 0.0265. With ACCCAACG the “PBM E-score” value was -0.0162. GGGAGTAC was tested, and the “PBM E-score” value was -0.0344. For ATCCATAC, the “PBM E-score” value was -0.0413. For ATGAAATA, the “PBM E-score” value was 0.16. In the case of GGGTAGAA, the “PBM E-score” value is reported as 0.138. With GCCCTGAA the “PBM E-score” value was 0.0216. For TGAACTCA, the “PBM E-score” value was 0.0602. For CCTAAAGC, the “PBM E-score” value was -0.287. For AATCGCTA, the “PBM E-score” value was -0.0187. For CAACGTCA, the “PBM E-score” value was 0.00153. TCCAAAAA was tested, and the “PBM E-score” value was -0.0755. GAGACCGA was tested, and the “PBM E-score” value was 0.00577. AGCCTGCC was tested, and the “PBM E-score” value was -0.0873. With AACGAACA the “PBM E-score” value was 0.277. For GGCGCCGA, the “PBM E-score” value was -0.0244. With AAGACTTC the “PBM E-score” value was -0.057. For CCGATACG, the “PBM E-score” value was -0.211. For ACTCCTGG, the “PBM E-score” value was -0.113. For CCGTCAGG, the “PBM E-score” value was -0.148. GTAATGGA was tested, and the “PBM E-score” value was 0.339. For GACCATGC, the “PBM E-score” value was -0.00429. TTAATAAA was tested, and the “PBM E-score” value was 0.271. With TGACTCCA the “PBM E-score” value was -0.208. CGTTGCCC was tested, and the “PBM E-score” value was -0.283. For GAATTGGA, the “PBM E-score” value was -0.0175. With CCCCTAAG the “PBM E-score” value was -0.317. In the case of CACGTAGC, the “PBM E-score” value is reported as -0.0687. For CATGAACC, the “PBM E-score” value was 0.0312. For ATACAAAC, the “PBM E-score” value was 0.27. GTACTTAA was tested, and the “PBM E-score” value was 0.171. In the case of ATAGGCCG, the “PBM E-score” value is reported as 0.0251. CACAGGTC was tested, and the “PBM E-score” value was -0.101. In the case of CTAGGAGA, the “PBM E-score” value is reported as -0.0596. With CACGTTCG the “PBM E-score” value was 0.0113. For AACCGCGT, the “PBM E-score” value was 0.296. With CGCGTGGA the “PBM E-score” value was -0.118. For GTTAGGGA, the “PBM E-score” value was -0.123. In the case of CGTGGCAG, the “PBM E-score” value is reported as -0.0613. ATAGTGGG was tested, and the “PBM E-score” value was -0.113. ACCACGCG was tested, and the “PBM E-score” value was 0.0409. With ATGACGAC the “PBM E-score” value was -0.105. For GTCAACCA, the “PBM E-score” value was 0.114. For ACTAAACA, the “PBM E-score” value was 0.196.
